Experimental data as given in paper PMC6212790.
This is one part of the list. At the low end of the ranking the order means little.
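Also: rank score from −0.5 (least bound) to 0.5 (best bound).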

What follows are sequences tested against T1, GST-Rok-C97-191 (UniProt O34857) (assay: protein binding microarray). Details: Rok is a gene silencer of Bacillus subtilis; high values mean tight binding; most listed sequences are background and not binding sites; double strand, one strand shown.
T1 sequence: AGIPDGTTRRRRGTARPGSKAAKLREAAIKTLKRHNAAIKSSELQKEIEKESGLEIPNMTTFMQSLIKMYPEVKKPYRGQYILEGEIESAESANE
In the case of AGGTCGAT, the binding signal is reported as -0.103 E-score. AGCAGGAC gave a binding signal of -0.227 E-score. ATGAGTAC gave a binding signal of 0.244 E-score. In the case of GGCACTAC, the binding signal is reported as -0.0847 E-score. CCCCTCCG gave a binding signal of -0.329 E-score. GTAGATAC showed a binding signal of 0.381 E-score. Sequence ATATTACA has a binding signal of 0.304 E-score. For ATTTCACA, the binding signal was 0.0633 E-score. Sequence GCGTCGAC has a binding signal of -0.139 E-score. For GACAGAGA, the binding signal was -0.182 E-score. CAAGTATG gave a binding signal of 0.0651 E-score. CCTCGGAA was tested, and the binding signal was -0.176 E-score. In the case of AGATCAAT, the binding signal is reported as -0.0402 E-score. In the case of CTCCCCTC, the binding signal is reported as -0.313 E-score. GACTTGTA was tested, and the binding signal was -0.0308 E-score. AATGACGG showed a binding signal of 0.0284 E-score. In the case of AGATCAAC, the binding signal is reported as -0.0585 E-score. Sequence CGATCGGC has a binding signal of -0.244 E-score. With AACTACTT the binding signal was 0.392 E-score. CAGATACG was tested, and the binding signal was 0.0158 E-score. AACCGGTC gave a binding signal of -0.217 E-score. With TAGGAAAA the binding signal was 0.0178 E-score. In the case of CGCAAACC, the binding signal is reported as -0.00397 E-score. GAGAGCAC gave a binding signal of -0.121 E-score. Work on CATCAACA yielded a binding signal of 0.0558 E-score. GTTCTCGA gave a binding signal of -0.0229 E-score. ATGCAGCG was tested, and the binding signal was 0.00717 E-score. Work on CCTTGCTA yielded a binding signal of 0.00423 E-score. In the case of GCGCTTCA, the binding signal is reported as -0.0571 E-score. Sequence CCGCCGCG has a binding signal of -0.271 E-score. ATCTGTCC gave a binding signal of 0.0714 E-score. Sequence TGACCTAA has a binding signal of -0.00994 E-score. Sequence CGCCCTTC has a binding signal of -0.312 E-score. Sequence GTACACGA has a binding signal of 0.0762 E-score. Work on GTATGGTA yielded a binding signal of 0.238 E-score. With AAGGCGGA the binding signal was -0.299 E-score. In the case of CAAAATGG, the binding signal is reported as -0.0352 E-score. CCGCGACG was tested, and the binding signal was -0.218 E-score. For CGAGCGCG, the binding signal was -0.0947 E-score. ACCGCGCT showed a binding signal of -0.0352 E-score. GAAATCAA showed a binding signal of 0.139 E-score. ACCTCCCC gave a binding signal of -0.292 E-score. AGTCGGAG was tested, and the binding signal was -0.182 E-score. ACAACTGT gave a binding signal of 0.0673 E-score. With CAAGAAAA the binding signal was 0.0292 E-score. GGGGGTAA was tested, and the binding signal was -0.188 E-score. Work on CGTGGATC yielded a binding signal of -0.192 E-score. GAATTAGC gave a binding signal of 0.123 E-score. Sequence AAGAGATT has a binding signal of -0.055 E-score. With GAGCGTAA the binding signal was 0.065 E-score. With ACTAGGGA the binding signal was 0.0211 E-score. Sequence TCCGAGGA has a binding signal of -0.172 E-score. CCATCTAC was tested, and the binding signal was 0.213 E-score. With AAACCCCT the binding signal was -0.251 E-score. In the case of ACGTTTAG, the binding signal is reported as 0.12 E-score. In the case of AACCGGCC, the binding signal is reported as -0.171 E-score. TCCCGACA was tested, and the binding signal was -0.0467 E-score. For ATGAACGA, the binding signal was -0.0028 E-score. CTACGTCA gave a binding signal of -0.162 E-score. In the case of AAGGTTAT, the binding signal is reported as -0.0408 E-score. Work on ATCAGGAT yielded a binding signal of -0.169 E-score. ATGCCACA gave a binding signal of -0.0438 E-score. ATGAACTC gave a binding signal of -0.191 E-score. Sequence CTGAGCCC has a binding signal of -0.236 E-score. For AGTCCGTC, the binding signal was -0.163 E-score. CTCAGTGC was tested, and the binding signal was -0.103 E-score. ATAAACGA was tested, and the binding signal was 0.114 E-score. Sequence GGTAGAAA has a binding signal of 0.465 E-score. GACCTCTA gave a binding signal of -0.236 E-score. AGGAACAG was tested, and the binding signal was -0.0365 E-score. Sequence TACGTAGA has a binding signal of 0.296 E-score. CGACGGCA gave a binding signal of -0.168 E-score. GGGCTTCA gave a binding signal of -0.173 E-score. Sequence AACGGTCC has a binding signal of -0.145 E-score. For CACATTCA, the binding signal was -0.0844 E-score. TAACCTAA showed a binding signal of 0.0496 E-score. ACGTTTCG was tested, and the binding signal was -0.085 E-score. Sequence ATTCGCGG has a binding signal of -0.0504 E-score. With CAGCACCA the binding signal was -0.164 E-score. AGGAATAT showed a binding signal of 0.14 E-score. Sequence TTTTAAAA has a binding signal of 0.148 E-score. For AAACATAG, the binding signal was 0.192 E-score. In the case of GGTCTTGA, the binding signal is reported as -0.234 E-score. ATTCGTGC gave a binding signal of 0.0911 E-score. In the case of GATACAAA, the binding signal is reported as 0.3 E-score. ATATCGCA gave a binding signal of 0.144 E-score. AGCCTCCG was tested, and the binding signal was -0.336 E-score. AGCGAACA showed a binding signal of -0.011 E-score. AGTACTTA gave a binding signal of 0.355 E-score. In the case of GTCTGAGA, the binding signal is reported as -0.0892 E-score. With CGAAAGGC the binding signal was -0.176 E-score. GACAAATA showed a binding signal of 0.111 E-score. CCCTATAC gave a binding signal of 0.104 E-score. For AAGGATAT, the binding signal was 0.0361 E-score. Work on CTATCTGC yielded a binding signal of -0.128 E-score. CACCGCTA gave a binding signal of -0.0974 E-score. AATCTCTA showed a binding signal of 0.185 E-score. Work on ACGCTATA yielded a binding signal of 0.0732 E-score. For ACTTTGCC, the binding signal was -0.059 E-score. In the case of ACCGCGTA, the binding signal is reported as -0.125 E-score. CATTATTA gave a binding signal of 0.27 E-score. For GAAAGGTC, the binding signal was -0.194 E-score. CACATGAG was tested, and the binding signal was 0.125 E-score. For CACCTACG, the binding signal was 0.0265 E-score. CAGGTTTC was tested, and the binding signal was -0.126 E-score. CAAACTAG showed a binding signal of 0.287 E-score. Work on CGGGGACC yielded a binding signal of -0.403 E-score. Sequence CATCTGTA has a binding signal of 0.195 E-score. Sequence AAATTGGC has a binding signal of 0.0866 E-score. CTGGGGCC was tested, and the binding signal was -0.271 E-score. AAGCAAAA was tested, and the binding signal was 0.11 E-score. Sequence GGAACACA has a binding signal of -0.122 E-score. GACTTACA gave a binding signal of -0.108 E-score. For TAATAATA, the binding signal was 0.424 E-score. For CCCTATAG, the binding signal was -0.2 E-score. With ACAGTAGT the binding signal was 0.258 E-score. For CCTCACGA, the binding signal was -0.145 E-score. In the case of CCGTTATC, the binding signal is reported as 0.0677 E-score. For GACACTCA, the binding signal was -0.00184 E-score. Work on GGAAAGTA yielded a binding signal of 0.298 E-score. For CACCAGTA, the binding signal was 0.00682 E-score. CGAAGCAC gave a binding signal of -0.116 E-score. For GAGGTTCA, the binding signal was -0.344 E-score. CGGCCTCA gave a binding signal of -0.148 E-score. For AAGGTAGT, the binding signal was 0.33 E-score. For ACCAGTTA, the binding signal was 0.105 E-score. In the case of ATTCAATA, the binding signal is reported as 0.0997 E-score. TCTGATAA showed a binding signal of 0.0829 E-score. AGAGACCC gave a binding signal of -0.126 E-score. For ATGGACAT, the binding signal was 0.0565 E-score. Work on AAACAAGC yielded a binding signal of -0.101 E-score. Work on CACGCAAC yielded a binding signal of -0.0353 E-score. CCACCAAG showed a binding signal of -0.201 E-score. ATTTCCTG was tested, and the binding signal was 0.203 E-score. Sequence GTCAGGTA has a binding signal of 0.0855 E-score. In the case of CCCACAGC, the binding signal is reported as -0.194 E-score. ATTGAAGA was tested, and the binding signal was 0.0335 E-score. ACAAAAGT showed a binding signal of 0.225 E-score. AAGTGTCA was tested, and the binding signal was -0.206 E-score. Sequence AAATGAAC has a binding signal of 0.0632 E-score. CTACTCGC gave a binding signal of 0.0199 E-score. In the case of CGCTATAG, the binding signal is reported as 0.161 E-score. In the case of AACCTGCA, the binding signal is reported as -0.141 E-score. Sequence ACATAAGC has a binding signal of 0.0497 E-score. GCATTTAC gave a binding signal of 0.159 E-score. AGATGTGC was tested, and the binding signal was 0.0955 E-score. Sequence ATTCCTCG has a binding signal of 0.0392 E-score. Sequence CGATCATC has a binding signal of -0.173 E-score. Sequence AGTCACAC has a binding signal of -0.0434 E-score. For AGTGTCAA, the binding signal was 0.124 E-score. For CGTCATAG, the binding signal was -0.029 E-score. Sequence AGTCCTAG has a binding signal of -0.104 E-score. CCCGGGAA showed a binding signal of -0.0921 E-score. In the case of ATCCGCTG, the binding signal is reported as 0.0373 E-score. AAGTATCG gave a binding signal of 0.117 E-score. ATTATCAA was tested, and the binding signal was 0.242 E-score. In the case of ACGCAGGG, the binding signal is reported as -0.121 E-score. Sequence GAACGCAC has a binding signal of -0.0666 E-score. With ATCGGATA the binding signal was 0.14 E-score. AAGTCCGC showed a binding signal of -0.00103 E-score. Work on GGGAGGAC yielded a binding signal of -0.256 E-score. In the case of AATCCACT, the binding signal is reported as -0.106 E-score. AGTACTGA was tested, and the binding signal was 0.234 E-score. For CCTGAGTC, the binding signal was -0.225 E-score. CAGAAGCA showed a binding signal of -0.0414 E-score. In the case of CGCTCATC, the binding signal is reported as -0.334 E-score. CCCTCCTC was tested, and the binding signal was -0.342 E-score. In the case of CACTTCGG, the binding signal is reported as -0.259 E-score. For ACGCTCGG, the binding signal was -0.182 E-score. With GTCCAGCA the binding signal was -0.0608 E-score. For AGCCCTGC, the binding signal was -0.217 E-score. With GACCCGCA the binding signal was -0.105 E-score.
